# PubChem BioAssay AID540317 (National Center for Advancing Translational Sciences (NCATS), 2011)
# Hit rate of the full screen: of about 390,000 compounds, about 2,200 (0.56%) were called active. Inconclusive results, whose numbers are uncertain, are shown with a selection of clear calls. The call rests on the fitted dose curve; in most records, active means well fitted inhibition curve with a large enough effect; inconclusive means small, poorly fitted or top-dose-only effect; inactive means no such curve, though single readings can be large or run the other way. Potencies beside an inconclusive call are fits to weak or partial responses and may not hold up.
# Molecular target: Chromobox protein homolog 1 (Homo sapiens) (UniProt P83916)
# Sequence of UniProt P83916 (P83916 whole entry, looked up): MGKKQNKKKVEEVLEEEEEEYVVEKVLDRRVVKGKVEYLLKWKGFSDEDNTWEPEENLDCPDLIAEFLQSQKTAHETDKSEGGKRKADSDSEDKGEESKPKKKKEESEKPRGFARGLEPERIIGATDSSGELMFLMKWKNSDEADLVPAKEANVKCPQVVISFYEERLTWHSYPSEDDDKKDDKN
# Assay: HTS for Inhibitors of HP1-beta Chromodomain Interactions with Methylated Histone Tails; further: nearly all actives have a fitted effect of over 70% in size
# Conditions: AlphaScreen HP1-beta / biotin-H3K9me3 peptide binding; series mostly up to 114 µM; activity change, negative = inhibition: at the top concentration
# Procedure, shortened: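 AlphaScreen: HP1-beta (50 nM) preformed 30 min with biotin-H3(1-18)K9me3 peptide (50 nM) in PBS pH 7.4, 0.01% Tween-20. Compound added for 30 min at RT, then streptavidin donor/nickel chelate acceptor beads (10 ug/mL) for 30 min.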
# Potency means the concentration at half of the fitted maximal effect; tags describe the fitted curve by direction and shape.
Structure (SMILES),Potency,"activity change, negative = inhibition"
O=C(NCc1ccccn1)C1CCN(Cc2cccc(OCc3ccccc3)c2)CC1,"inconclusive: 22.4 µM [inhibitor, single point]",–
CCCN1CCC(N2CCN(c3ccc([N+](=O)[O-])cc3)CC2)CC1,"inconclusive: 14.1 µM [inhibitor, full curve, poor fit]",–
NC(=O)C1CCN(C2=C(NS(=O)(=O)c3ccccc3)C(=O)c3ccccc3C2=O)CC1,"inconclusive: 25.1 µM [inhibitor, partial curve, poor fit]",–
O=C1Nc2ccc(S(=O)(=O)NCc3ccccn3)c3cccc1c23,"inconclusive: 79.4 µM [inhibitor, partial curve]",–
O=C(N/N=C/C(Cl)=C/c1ccc([N+](=O)[O-])cc1)C(=O)Nc1ccc(C(=O)O)cc1,"inconclusive: 31.6 µM [inhibitor, full curve]",–
Cn1c(COc2cccc3cccnc23)nnc1SCC(=O)O,"inconclusive: 35.5 µM [inhibitor, single point]",–
CC1CCCC(C)N1C(=C(Cl)Cl)C(=C1SCCS1)[N+](=O)[O-] (stereo not drawn),"inconclusive: 20 µM [inhibitor, partial curve]",–
O=C(CSc1nccn1-c1cccc(Cl)c1)Nc1ccc2c(c1)OCCO2,"inconclusive: 10 µM [inhibitor, full curve]",–
CCC(C)NS(=O)(=O)c1ccc(S(=O)(=O)N2CC=C(c3ccc(F)cc3)CC2)cc1 (stereo not drawn),"inconclusive: 39.8 µM [inhibitor, single point]",–
CC(C)CCc1noc(CN2CCC(C(=O)N3CCOCC3)CC2)n1,–,inactive: 36%
COc1ccc(N2CCN(C(=O)CC34CC5CC(CC(C5)C3)C4)CC2)c([N+](=O)[O-])c1,"inconclusive: 22.4 µM [inhibitor, full curve]",–
Cc1cc(SCC(=O)c2ccc(O)c(O)c2)nc2ccccc12,"inconclusive: 15.8 µM [inhibitor, partial curve, poor fit]",–
COc1ccc(OC)c2sc(N3CCN(C(=O)c4ccc5c(c4)CCCC5)CC3)nc12,"inconclusive: 28.2 µM [inhibitor, partial curve]",–
CCC1CC2(C)NC(=O)c3c(sc4c3CC(C)(C)OC4)N2C1=O (stereo not drawn),"inconclusive: 35.5 µM [inhibitor, partial curve]",–
Cc1sc(NC(=O)c2ccco2)c(C(c2cccnc2)N2CCC(C)CC2)c1C (stereo not drawn),"inconclusive: 35.5 µM [inhibitor, single point]",–
COc1cc2[nH]c(=S)nc(NCC3CCCO3)c2cc1OC (stereo not drawn),–,inactive: 25.3%
CC(C)OCc1ccc(C(=O)N2CCN(CC(=O)N3CCCC3)CC2)cc1,–,inactive: 26.6%
CC1=CC(=C(C#N)C#N)C=C(C)N1CCN1CCNCC1,"inconclusive: 79.4 µM [inhibitor, single point]",–
CCc1ccc(C2C(C#N)=C(N)N(N(C)C)C3=C2C(=O)CCC3)cc1 (stereo not drawn),–,inactive: 24.6%
Cc1ccc(-c2nc(Nc3ccc(N4CCOCC4)cc3)c3ccccc3n2)cc1,"inconclusive: 35.5 µM [inhibitor, partial curve]",–
CCc1ccc2[nH]c(O)c(N=Nc3nc(-c4ccccc4)cs3)c2c1,"inconclusive: 20 µM [inhibitor, partial curve]",–
O=c1cc2c(nn1Cc1ccc(Cl)cc1)-c1ccccc1CC2,–,inactive: 61.7%

Structure (SMILES),Potency,"activity change, negative = inhibition"
CC[C@@]1(C(=O)OC)N[C@H](CN(C)S(=O)(=O)c2ccc(OC)cc2)[C@@H]2C(=O)N(C)C(=O)[C@@H]21,–,inactive: 34.7%
O=C1C(NS(=O)(=O)c2cccs2)=C(N2CCN(c3cccc(Cl)c3)CC2)C(=O)c2ccccc21,"inconclusive: 7.08 µM [inhibitor, full curve, poor fit]",–
Cc1ccccc1C(=O)NC(=S)Nc1ccc(N2CCOCC2)cc1,"inconclusive: 17.8 µM [inhibitor, full curve]",–
COc1ccc(Br)cc1/C=N/n1c(COc2ccccc2)n[nH]c1=S,–,inactive: 12%
CCN(CC)c1ccc(/C=C2\CCC(/C=C(/C#N)C(=O)Nc3ccccc3F)=C2N2CCOCC2)cc1,"inconclusive: 2 µM [inhibitor, full curve, poor fit]",–
CCOC(=O)c1ccc(NCCc2ccc(OC)c(OC)c2)c(N)c1,"inconclusive: 70.8 µM [inhibitor, partial curve]",–
CCn1c(SCC(=O)NCc2cccs2)nnc1-c1cccs1,–,inactive: 11.9%
COc1ccc(NC(=O)c2c(NCc3ccc(N(C)C)cc3)sc3c2CCC3)cc1,"inconclusive: 56.2 µM [inhibitor, partial curve, poor fit]",–
CC1CCCN(c2cc3c(cc2[N+](=O)[O-])C(=O)N(c2ccccc2)C3=O)C1 (stereo not drawn),"inconclusive: 22.4 µM [inhibitor, partial curve]",–
Cc1cccnc1NC(=S)NC(=O)/C=C/c1ccco1,–,inactive: 28.6%
CN(C(=O)N1CCN(c2ccccn2)CC1)c1ccccc1,–,inactive: 22%
Cc1cccc(Nc2ncnc(N)c2[N+](=O)[O-])n1,–,inactive: 8.14%
COc1ccc(Nc2nnc(SCC(=O)c3cc4ccccc4o3)s2)cc1,–,inactive: 7.72%
CCOc1ccc2nc(NC(=O)CSc3nc(-c4ccccc4)c(C#N)c(=O)[nH]3)sc2c1,"inconclusive: 25.1 µM [inhibitor, full curve]",–
O=C(CN1CCN(c2nc(-c3ccccc3)cs2)CC1)NCc1ccc2c(c1)OCO2,"inconclusive: 39.8 µM [inhibitor, partial curve, poor fit]",–
Nc1ccc2nc(SCc3ccc([N+](=O)[O-])cc3)sc2c1,"inconclusive: 44.7 µM [inhibitor, partial curve]",–
Cn1c(N2CCC(C(N)=O)CC2)nc2c1c(=O)n(Cc1cccc(Br)c1)c(=O)n2C,–,inactive: 4.11%
COc1ccccc1NS(=O)(=O)c1ccc(N/N=C(\C)C(C)C)c([N+](=O)[O-])c1,"inconclusive: 28.2 µM [inhibitor, single point]",–
COC(=O)c1c(NC(=O)Cn2cnc([N+](=O)[O-])n2)sc2c1CCC(C)C2 (stereo not drawn),"inconclusive: 20 µM [inhibitor, full curve]",–
COc1ccc2c(CNCc3cccs3)c(C(=O)O)n(Cc3ccc(C)cc3)c2c1,–,inactive: 12.4%
O=[N+]([O-])c1ccc(O)c(C2CCCCC2)c1,–,inactive: 23.1%
